{"source": "PubChem BioAssay AID1768", "about": "(National Center for Advancing Translational Sciences (NCATS), 2009)", "note": "Out of some 270,000 compounds screened, about 620 (0.23%) were called active. The inconclusive results got no clear call from the source; some entries with a clear call stand among them for comparison. The call rests on the fitted dose curve; in most records, active means well fitted inhibition curve with a large enough effect in the polarisation, with a control signal flat (not every such curve was filed as active); inconclusive means small, poorly fitted or top-dose-only effect, or effect the other way, or a change in a side signal; inactive means no such curve, though single readings can be large or run the other way; the % refers to the polarisation. Potencies beside an inconclusive call are fits to weak or partial responses and may not hold up. A note “side channel” means that the fit belongs to a control or component signal, not to the main read-out. Potency means the concentration at half of the fitted maximal effect; tags describe the fitted curve by direction and shape or compound fluorescence and quenching.", "data": [{"biological_target": "Menin (Homo sapiens) (UniProt O00255)", "sequence (O00255 whole entry, looked up)": "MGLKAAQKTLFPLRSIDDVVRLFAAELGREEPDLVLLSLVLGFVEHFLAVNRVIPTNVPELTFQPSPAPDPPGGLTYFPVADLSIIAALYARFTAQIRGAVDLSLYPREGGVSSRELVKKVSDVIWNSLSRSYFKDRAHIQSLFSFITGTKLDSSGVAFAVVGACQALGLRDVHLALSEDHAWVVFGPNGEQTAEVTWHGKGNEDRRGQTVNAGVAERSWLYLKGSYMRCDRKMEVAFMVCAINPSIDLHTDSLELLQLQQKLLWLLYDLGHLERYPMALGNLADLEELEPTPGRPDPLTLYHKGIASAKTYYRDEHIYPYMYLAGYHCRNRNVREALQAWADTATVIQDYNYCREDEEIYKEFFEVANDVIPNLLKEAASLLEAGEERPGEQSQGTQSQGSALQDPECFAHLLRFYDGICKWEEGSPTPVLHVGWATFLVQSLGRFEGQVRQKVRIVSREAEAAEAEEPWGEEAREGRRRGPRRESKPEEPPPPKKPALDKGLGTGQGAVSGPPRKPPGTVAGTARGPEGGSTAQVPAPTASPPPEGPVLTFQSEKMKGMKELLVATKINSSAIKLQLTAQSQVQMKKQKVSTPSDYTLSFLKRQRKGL", "assay": "qHTS Assay for Inhibitors Targeting the Menin-MLL Interaction in MLL Related Leukemias: Competition With Texas Red Labeled MLL-derived Mutant Peptide; on FP activity change, negative = inhibition: % of control where 0% means no effect", "settings": "fluorescence polarization; FP activity change, negative = inhibition: at 61.6 µM (top of the series)", "source_text": "qHTS Assay for Inhibitors Targeting the Menin-MLL Interaction in MLL Related Leukemias NIH Chemical Genomics Center [NCGC] NIH Molecular Libraries Probe Centers Network [MLPCN] MLPCN Grant: MH084875-01A1 Assay Submitter (PI): Jolanta Grembecka, Tomasz Cierpicki, University of Virginia Translocations of the MLL (Mixed Lineage Leukemia) gene are frequently found in human leukemias affecting both children and adults. Fusion of MLL to one of more than 60 genes results in generation of oncogenic proteins upregulating Hox genes, which are vital to blood cell development. Patients harboring fusion of the MLL gene suffer from aggressive leukemias and respond poorly to available therapies. All of the oncogenic fusion proteins have a preserved N-terminal fragment of MLL that has been identified to interact with menin. It has been recently discovered that association with menin is critical to the leukemogenic activity of the MLL fusion oncoproteins. Selective targeting of the menin-MLL interaction could provide an attractive therapeutic approach to develop novel drugs for MLL-related leukemias. Small molecules blocking the menin-MLL interaction should reverse the oncogenic potential of MLL fusion proteins. We have developed and optimized a fluorescence polarization-based assay for the identification of Menin-MLL inhibitors. The assay was run employing two different MLL-derived peptides. The present assay uses a 12 amino acid peptide labeled with fluorescein at its N-terminus. This peptide consists of the menin high affinity binding motif from MLL and is potently bound by menin. Another peptide with a mutated sequence, labeled with Texas Red, was used in parallel as a less stringent screen for inhibitors.\nThe Menin protein, the MLL-wild type (w.t.) derived peptide (N-terminal 12 amino acids), the MLL-derived peptide labeled with Texas Red and the MLL-w.t. peptide labeled with Fluorescein were kindly supplied by laboratory of Dr. Jolanta Grembecka, University of Virginia. All protein and peptide solutions were stored in single use aliquots at -80C. The Eu3+ Cyrptate-conjugated mouse monoclonal antibody anti-6 Histidine (Eu3+-AB) and the Streptavidin-XL665 conjugate (XL665) were purchased from Cisbio International (Bedford, MA). All antibody and XL665 conjugate solution stocks were stored in single use aliquots at -20C. The Buffer components for all assays were purchased from Sigma-Aldrich (St. Louis, MO) and Invitrogen (Carlsbad, CA). FP Assay Reagents: 1. FP reaction buffer: 50 mM Tris-HCl pH 7.5, 50 mM NaCl, 1mM DTT. Before use, 0.05% BSA is added. 2. Menin protein, MLL-w.t. labeled with fluorescein, MLL-mutant peptide labeled with texas red. Stored in singe use aliquots at -80C. 3. MLL-w.t. unlabeled peptide as positive control: 10 uM final in FP buffer. FP Assay Procedure: 1. Prepare Menin at 200 nM, MLL-w.t.-fluorescein at 25 nM, and MLL-mutant-texas red at 50 nM mixture in FP buffer. 2. Prepare Menin at 200 nM, MLL-w.t.-fluorescein at 25 nM, MLL-mutant-texas red at 50 nM, and 10 uM MLL-w.t. unlabeled mixture in FP buffer. 3. Prepare MLL-w.t.-fluorescein at 25 nM and MLL-mutant-texas red at 50 nM mixture in FP buffer. 3. Dispense 4 ul per well of reagent in step 1 in columns 2, 4 - 48 in a black 1536 well plate, dispense 4 ul per well of reagents from steps 2 and 3 in columns 1 and 3 respectively. Incubate plate at ambient for 15 minutes. 4. Transfer 23 nl per well of compound to plate and incubate at ambient for 1 hr. 5. Read fluorescence polarization for each label using the PerkinElmer Envision. Envision protocol for fluorescein: FITC FP Dual Enh Mirror, Excitation filter 480, Emission filter (1) P-pol 535, Emission filter (2) S-pol 535 Envision protocol for texas red: FP Dual Enh Mirror, Excitation filter 555, Emission filter (1) P-pol 632, Emission filter (2) S-pol 632", "values": [{"smiles": "CCCCC1(Cc2ccc([N+](=O)[O-])cc2)C(=O)N(c2ccccc2)N(c2ccccc2)C1=O", "Potency": "inconclusive: 15.8 µM [fluorescent, side channel, partial curve]"}, {"smiles": "COc1ccccc1NC(=O)Nc1ccc(F)c(F)c1", "Potency": "inconclusive: 22.4 µM [quencher, side channel, partial curve]"}, {"smiles": "Cc1nc(C)c(-c2csc(Nc3ccc(N)cc3)n2)s1", "Potency": "inconclusive: 25.1 µM [quencher, side channel, partial curve]"}, {"smiles": "CC1=Nc2ccccc2/C1=C\\c1nc(-c2ccc(C(F)(F)F)cc2)oc1O", "Potency": "inconclusive: 10 µM [quencher, side channel, partial curve]"}, {"smiles": "O=C1c2ccccc2C(Nc2ccc(-c3nc4ccccc4[nH]3)cc2)N1Cc1ccco1", "note": "(stereo not given)", "Potency": "inconclusive: 31.6 µM [quencher, side channel, single point]"}, {"smiles": "CC(C)c1ccc(OCC(=O)N2CCc3ccccc3C2)cc1", "Potency": "inconclusive: 11.2 µM [fluorescent, side channel, partial curve]"}, {"smiles": "Cc1c(N/N=C(\\C#N)C(=O)c2ccc(Cl)cc2)c(=O)n(-c2ccccc2)n1C", "Potency": "inconclusive: 22.4 µM [quencher, side channel, partial curve]"}, {"smiles": "COc1ccc(-c2nc(SCc3ccc(C#N)cc3)[nH]c(=O)c2C#N)cc1", "Potency": "inconclusive: 14.1 µM [quencher, side channel, partial curve]"}, {"smiles": "NC(=O)c1ccc2c(=O)c(O)c(-c3cc(Cl)c(N)c(Cl)c3)[nH]c2c1", "Potency": "inconclusive: 25.1 µM [quencher, side channel, single point]"}, {"smiles": "OC(c1cc(-c2ccc(C(F)(F)F)cc2)nc(C(F)(F)F)c1)C1CCCCN1", "note": "(stereo not given)", "Potency": "inconclusive: 8.91 µM [fluorescent, side channel, partial curve]"}, {"smiles": "Oc1c(Cl)cc(Cl)cc1/C=N/c1nc(-c2ccc(Cl)cc2)cs1", "Potency": "inconclusive: 2.24 µM [quencher, side channel, full curve]"}, {"smiles": "Cc1c(Cl)cccc1N1C(=O)CC(NNC(=O)c2cccnc2)C1=O", "note": "(stereo not given)", "Potency": "inconclusive: 22.4 µM [quencher, side channel, partial curve]"}, {"smiles": "COc1ccc(-c2nc(SCC(=O)NCc3ccco3)c(-c3ccccc3)[nH]2)cc1OC", "Potency": "inconclusive: 14.1 µM [quencher, side channel, partial curve]"}, {"smiles": "CCOC(=O)Cn1cc(/C=N/N2C(=O)C3C4C=CC(C4)C3C2=O)c2ccccc21", "note": "(stereo not given)", "Potency": "inconclusive: 3.98 µM [inhibitor, single point]"}, {"smiles": "COc1cc(NC(=O)COC(=O)/C=C/c2ccc(O)c(OC)c2)cc(OC)c1", "Potency": "inconclusive: 22.4 µM [quencher, side channel, partial curve]"}, {"smiles": "CC(Oc1ccc2ccccc2c1)C(=O)NNC(=S)NC(=O)c1ccco1", "note": "(stereo not given)", "Potency": "inconclusive: 22.4 µM [quencher, side channel, single point]"}, {"smiles": "CC(=O)N(\\C=C/C=C/C=C1\\Sc2ccccc2C1=O)c1ccccc1", "Potency": "inconclusive: 25.1 µM [fluorescent, side channel, partial curve]"}, {"smiles": "COC(=O)c1ccccc1NC(=O)C12CC3CC(C1)CC(n1cnc(Cl)n1)(C3)C2", "Potency": "inconclusive: 31.6 µM [inhibitor, single point]"}, {"smiles": "COc1ccccc1CC(=O)Nc1sc2c(c1C(N)=O)CCCC2", "Potency": "inconclusive: 39.8 µM [fluorescent, side channel, single point]"}, {"smiles": "O=C(NC1(O)C(=O)c2ccccc2C1=O)c1ccccc1", "Potency": "inconclusive: 22.4 µM [quencher, side channel, partial curve]"}, {"smiles": "COCCCNC(=O)CS(=O)(=O)Cc1nc(-c2cccc(OC)c2)oc1C", "FP activity change, negative = inhibition": "inactive: 10.9%"}, {"smiles": "O=C(O)Cc1c[nH]c2cccc(O)c12", "Potency": "inconclusive: 22.4 µM [quencher, side channel, partial curve]"}, {"smiles": "Cc1cccc(-n2nnnc2SCC(=O)N(CC(C)C)c2c(N)n(CC(C)C)c(=O)[nH]c2=O)c1", "Potency": "inconclusive: 39.8 µM [fluorescent, side channel, single point]"}, {"smiles": "Cc1ccc(OCC(=O)OCC(=O)Nc2sccc2C(N)=O)cc1C", "Potency": "inconclusive: 20 µM [quencher, side channel, single point]"}, {"smiles": "COc1ccc(N(C(=O)Cc2cccs2)C(C(=O)NC2CCCCC2)c2cccn2C)cc1", "note": "(stereo not given)", "Potency": "inconclusive: 1.41 µM [fluorescent, side channel, full curve, poor fit]"}, {"smiles": "COc1ccc(OC)c(-c2nc(CN3CCCCC3c3cccnc3)c(C)o2)c1", "note": "(stereo not given)", "Potency": "inconclusive: 22.4 µM [inhibitor, partial curve]"}, {"smiles": "COc1ccc(C2=NN(c3nc(-c4ccccc4)c(CC(=O)O)s3)C(c3ccco3)C2)cc1", "note": "(stereo not given)", "Potency": "inconclusive: 28.2 µM [quencher, side channel, partial curve]"}, {"smiles": "Cc1ccc(CNC(=O)CCCn2c(=O)c3ccccc3n(CC(=O)NCc3ccco3)c2=O)cc1", "Potency": "inconclusive: 8.91 µM [inhibitor, partial curve]"}, {"smiles": "COc1ccc(NC(=O)c2nn(C)c(C(=O)Nc3ccc(OC)cc3)c2[N+](=O)[O-])cc1", "Potency": "inconclusive: 35.5 µM [fluorescent, side channel, single point]"}, {"smiles": "Cc1[nH]n(-c2ccccc2)c(=O)c1N=Nc1cccc(C(=O)O)c1", "Potency": "inconclusive: 20 µM [quencher, side channel, partial curve]"}, {"smiles": "CN1CCOC(=O)/C1=N/Nc1cc(Cl)ccc1Cl", "Potency": "inconclusive: 28.2 µM [quencher, side channel, single point]"}, {"smiles": "Cc1ccc2c(c1)sc1nc(=O)n(-c3cccc(Cl)c3)c(=O)n12", "Potency": "inconclusive: 28.2 µM [inhibitor, single point]"}, {"smiles": "CC(C)c1ccc(Nc2nnc(SC3CCOC3=O)s2)cc1", "note": "(stereo not given)", "Potency": "inconclusive: 39.8 µM [inhibitor, partial curve]"}, {"smiles": "COc1cccc(-n2c(=S)sc3c(=O)n(-c4ccccc4OC)c(=S)[nH]c32)c1", "Potency": "inconclusive: 15.8 µM [inhibitor, partial curve]"}, {"smiles": "COc1ccccc1Nc1nc(-c2cccc([N+](=O)[O-])c2)nc2ccccc12", "Potency": "inconclusive: 0.794 µM [quencher, side channel, full curve]"}, {"smiles": "CCOC(=O)c1cccc(NC(=O)/C=C/c2ccc([N+](=O)[O-])cc2)c1", "Potency": "inconclusive: 3.55 µM [quencher, side channel, full curve]"}, {"smiles": "CC1CC1C(=O)Nc1nc(-c2cccs2)c(-c2cccs2)s1", "note": "(stereo not given)", "Potency": "inconclusive: 31.6 µM [quencher, side channel, partial curve]"}, {"smiles": "Cc1ccc(-c2nnn(CC(=O)N(c3ccccc3F)C(CC(C)C)C(=O)NCC3CCCO3)n2)cc1", "note": "(stereo not given)", "Potency": "inconclusive: 10 µM [fluorescent, side channel, partial curve]"}, {"smiles": "Fc1ccc(N2N=C(c3cccs3)CC2c2ccccc2)cc1", "note": "(stereo not given)", "Potency": "inconclusive: 7.94 µM [quencher, side channel, partial curve]"}, {"smiles": "COc1ccc(C(=O)C(CCCCC(CN(C)C)C(=O)c2ccc(OC)cc2)CN(C)C)cc1", "note": "(stereo not given)", "Potency": "inconclusive: 20 µM [fluorescent, side channel, single point]"}, {"smiles": "CC1CN(C(=O)Nc2ccc3snnc3c2)c2ccccc21", "note": "(stereo not given)", "Potency": "inconclusive: 28.2 µM [quencher, side channel, single point]"}, {"smiles": "CCOC(=O)C1(CCCc2ccccc2)CCN(Cc2nccn2CC)CC1", "Potency": "inconclusive: 8.91 µM [fluorescent, side channel, partial curve]"}, {"smiles": "C/C(=N\\NC(=O)c1ccoc1C)c1ccccc1O", "FP activity change, negative = inhibition": "inactive: 4.06%"}, {"smiles": "O=C(N/N=C/c1ccc([N+](=O)[O-])cc1)c1c[nH]c2ccccc12", "Potency": "inconclusive: 11.2 µM [quencher, side channel, partial curve]"}, {"smiles": "N#Cc1c(NC(=O)c2ccccc2)sc2c1CCC2", "Potency": "inconclusive: 28.2 µM [inhibitor, single point]"}, {"smiles": "CC(=O)c1cc2c(=O)c3cc(C)ccc3oc2nc1C", "FP activity change, negative = inhibition": "inactive: 0.543%"}, {"smiles": "CCCN1CCCc2cc(CN(CCCN3CCOCC3)C(=O)Nc3ccc(OCC)cc3)ccc21", "Potency": "inconclusive: 10 µM [fluorescent, side channel, partial curve]"}, {"smiles": "CS(=O)(=O)Nc1ccc(-c2cn3c(n2)SCC3)cc1", "Potency": "inconclusive: 39.8 µM [quencher, side channel, single point]"}, {"smiles": "Cc1cc(NS(=O)(=O)c2ccc(NC(=O)C(c3ccccc3)c3ccccc3)cc2)no1", "Potency": "inconclusive: 22.4 µM [quencher, side channel, single point]"}, {"smiles": "O=S(=O)(NCc1ccc(Cl)cc1)NCc1ccccc1F", "Potency": "inconclusive: 25.1 µM [inhibitor, single point]"}, {"smiles": "O=C(CC1(O)C(=O)N(CCc2ccccc2)c2ccccc21)c1ccccn1", "note": "(stereo not given)", "Potency": "inconclusive: 15.8 µM [fluorescent, side channel, partial curve]"}, {"smiles": "Clc1ccc(CSc2nnc(/C=C/c3ccccc3)o2)cc1", "Potency": "inconclusive: 3.16 µM [inhibitor, single point]"}, {"smiles": "O=C(CN1CCCCC1)NCC1(c2ccccc2)CCCC1", "Potency": "inconclusive: 20 µM [inhibitor, partial curve]"}, {"smiles": "O=C(Nc1ccccc1Cl)c1ccc(COc2ccc3c(c2)CCC3)cc1", "Potency": "inconclusive: 35.5 µM [inhibitor, single point]"}, {"smiles": "CCOc1ccccc1N1CCN(C(=O)NCc2ccc(C)cc2)CC1", "Potency": "inconclusive: 10 µM [inhibitor, partial curve]"}]}]}
